The other results are listed elsewhere or left out.
Experiments:
HSkMC = human skeletal muscle cells; test: cytotoxicity call (relative viability < 0.9); settings: 10 µM
HepG2 = test: cytotoxicity call (relative viability < 0.9); settings: 10 µM
S. aureus RN4220 = test: growth inhibition call (relative growth <= 0.2); settings: 50 µM

C[C@H](CO)N1C[C@H](C)[C@@H](CN(C)S(=O)(=O)c2ccc(F)cc2)OCCCC[C@H](C)Oc2ccc(NC(=O)Nc3ccc4c(c3)OCO4)cc2C1=O
inactive: cytotoxicity call (HSkMC) | cytotoxicity call (HepG2) | growth inhibition call (S. aureus RN4220)

C[C@@H]1CN([C@@H](C)CO)C(=O)c2cc(C#C[C@@H](C)O)cnc2O[C@@H]1CN(C)C(=O)Nc1ccc(C(F)(F)F)cc1
inactive: cytotoxicity call (HSkMC) | cytotoxicity call (HepG2) | growth inhibition call (S. aureus RN4220)

O=C(C[C@@H]1CC[C@@H]2[C@H](COC[C@H](O)CN2C(=O)c2ccncc2)O1)NCc1ccc(-c2ccccc2)cc1
inactive: cytotoxicity call (HSkMC) | cytotoxicity call (HepG2) | growth inhibition call (S. aureus RN4220)

C[C@@H]1CN([C@H](C)CO)C(=O)c2cc(NS(C)(=O)=O)ccc2O[C@@H](C)CCCCO[C@@H]1CN(C)S(=O)(=O)c1cccs1
inactive: cytotoxicity call (HSkMC) | cytotoxicity call (HepG2) | growth inhibition call (S. aureus RN4220)

Cc1cc(C(=O)Nc2cccc3c2O[C@@H](CN(C)C(=O)NC2CCCCC2)[C@H](C)CN([C@@H](C)CO)C3=O)n(C)n1
inactive: cytotoxicity call (HSkMC) | cytotoxicity call (HepG2) | growth inhibition call (S. aureus RN4220)

C[C@@H]1CC[C@]2(C(=O)O[C@@H]3O[C@H](CO)[C@@H](O)[C@H](O)[C@H]3O)CC[C@]3(C)C(=CC[C@H]4[C@@]5(C)C[C@@H](O)[C@H](O)[C@@](C)(CO)[C@@H]5CC[C@]43C)[C@@H]2[C@]1(C)O
inactive: cytotoxicity call (HSkMC) | cytotoxicity call (HepG2) | growth inhibition call (S. aureus RN4220)

COc1ccc(S(=O)(=O)N[C@H]2CC[C@H](CC(=O)N3CCN(c4ccccc4)CC3)O[C@@H]2CO)cc1
inactive: cytotoxicity call (HSkMC) | cytotoxicity call (HepG2) | growth inhibition call (S. aureus RN4220)

Cc1ccc(S(=O)(=O)N(C)C[C@H]2Oc3ccc(NS(=O)(=O)c4ccccc4)cc3CC(=O)N([C@@H](C)CO)C[C@H]2C)cc1
inactive: cytotoxicity call (HSkMC) | cytotoxicity call (HepG2) | growth inhibition call (S. aureus RN4220)
